{
  "source": "paper PMC4336329",
  "about": "(PLoS ONE, 2015)",
  "note": "Out of some 310,000 compounds screened, about 2,200 (0.71%) showed an effect of 50% or more. Effects have a minus sign here. This is one part of the list.",
  "data": [
    {"target": "human ether-à-go-go-related gene (hERG) potassium channel (human, UniProt Q12809)", "sequence (Q12809 whole entry, looked up)": "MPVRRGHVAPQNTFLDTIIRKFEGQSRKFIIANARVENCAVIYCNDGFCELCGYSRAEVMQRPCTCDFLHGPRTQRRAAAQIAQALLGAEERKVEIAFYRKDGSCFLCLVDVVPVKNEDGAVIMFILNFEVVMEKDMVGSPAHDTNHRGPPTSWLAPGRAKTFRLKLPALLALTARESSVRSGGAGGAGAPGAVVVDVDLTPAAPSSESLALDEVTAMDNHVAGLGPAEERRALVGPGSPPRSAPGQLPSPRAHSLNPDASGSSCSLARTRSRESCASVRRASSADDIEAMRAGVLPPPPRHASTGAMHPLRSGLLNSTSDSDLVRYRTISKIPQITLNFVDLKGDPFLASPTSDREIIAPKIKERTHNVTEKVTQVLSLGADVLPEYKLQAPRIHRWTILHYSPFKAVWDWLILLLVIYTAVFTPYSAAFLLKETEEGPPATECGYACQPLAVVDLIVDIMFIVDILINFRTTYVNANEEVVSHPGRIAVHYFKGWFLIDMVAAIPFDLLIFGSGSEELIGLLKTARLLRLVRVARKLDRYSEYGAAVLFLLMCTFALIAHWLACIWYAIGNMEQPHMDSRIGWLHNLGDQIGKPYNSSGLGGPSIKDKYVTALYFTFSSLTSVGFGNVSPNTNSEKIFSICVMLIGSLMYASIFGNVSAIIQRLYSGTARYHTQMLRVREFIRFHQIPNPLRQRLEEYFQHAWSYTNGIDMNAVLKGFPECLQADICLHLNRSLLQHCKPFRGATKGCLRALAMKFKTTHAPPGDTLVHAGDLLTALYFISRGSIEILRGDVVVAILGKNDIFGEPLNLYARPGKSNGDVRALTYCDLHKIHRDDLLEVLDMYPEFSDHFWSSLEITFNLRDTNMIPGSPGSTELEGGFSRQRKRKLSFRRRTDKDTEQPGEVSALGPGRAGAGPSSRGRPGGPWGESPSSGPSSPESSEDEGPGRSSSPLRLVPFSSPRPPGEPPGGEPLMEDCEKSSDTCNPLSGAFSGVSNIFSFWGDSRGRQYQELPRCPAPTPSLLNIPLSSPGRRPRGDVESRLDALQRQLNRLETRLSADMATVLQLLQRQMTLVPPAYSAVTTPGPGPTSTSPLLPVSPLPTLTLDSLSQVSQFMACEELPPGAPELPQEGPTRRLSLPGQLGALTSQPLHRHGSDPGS", "experiment": "primary screen, population patch clamp on CHO cells stably expressing hERG", "units": {"hERG current change (%, negative = inhibition) at 1uM": "%"}, "values": [
      {"smiles": "COc1ccc(/C=C/C(=O)Nc2c(C(=O)O)[nH]c3ccccc23)cc1OC", "hERG current change (%, negative = inhibition) at 1uM": 10.8},
      {"smiles": "COc1ccc(N(CC(=O)NCc2cccs2)S(=O)(=O)c2cccnc2)cc1", "hERG current change (%, negative = inhibition) at 1uM": 9.3},
      {"smiles": "CN(C)c1ccc(/C=N/N=C(N)N)cc1[N+](=O)[O-]", "hERG current change (%, negative = inhibition) at 1uM": 8.72},
      {"smiles": "O=C(CC(=O)c1ccccc1)Nc1cccnc1", "hERG current change (%, negative = inhibition) at 1uM": 16.5},
      {"smiles": "CCc1nnc(NC(=O)CN2CCN(c3ccccc3F)CC2)s1.Cl", "hERG current change (%, negative = inhibition) at 1uM": 8.76},
      {"smiles": "Cc1cc(/C=C2/SC(=O)N(CC(=O)N3CCCC3)C2=O)c(C)n1C", "hERG current change (%, negative = inhibition) at 1uM": 6.48},
      {"smiles": "O=C1C2CCCCN2C(=O)N1CCCCN1CCN(c2ccc(F)cc2)CC1", "note": "(centres unmarked)", "hERG current change (%, negative = inhibition) at 1uM": -7.05},
      {"smiles": "COc1cccc(Nc2nc(N)c([N+](=O)[O-])c(NCc3ccccc3)n2)c1", "hERG current change (%, negative = inhibition) at 1uM": 9.81},
      {"smiles": "CC(C)NC(=O)CSCc1c(Cl)cccc1Cl", "hERG current change (%, negative = inhibition) at 1uM": -3.97},
      {"smiles": "COc1ccccc1NC(C)C(=O)Nc1ccc(C(C)=O)cc1", "note": "(centres unmarked)", "hERG current change (%, negative = inhibition) at 1uM": 1.97},
      {"smiles": "CC(=O)Oc1ccc(-c2nc3c(C)cccc3c(=O)o2)cc1", "hERG current change (%, negative = inhibition) at 1uM": 11.9},
      {"smiles": "COC(=O)c1ccc(COc2ncnc3c(Cl)cc(Cl)cc23)o1", "hERG current change (%, negative = inhibition) at 1uM": 3.89},
      {"smiles": "O=C(/C=C/c1c(Cl)nc2ccccn12)N1CCN(c2ccccc2F)CC1", "hERG current change (%, negative = inhibition) at 1uM": 6.63},
      {"smiles": "Cc1ccc(NC(=O)CCNS(=O)(=O)c2ccc3[nH]c(=O)oc3c2)cc1", "hERG current change (%, negative = inhibition) at 1uM": 0.634},
      {"smiles": "Cc1ccc(C(C)C)c(OCC(=O)Nn2c(C)nc3ccccc3c2=O)c1", "hERG current change (%, negative = inhibition) at 1uM": -10.3},
      {"smiles": "CC1(C)c2ccccc2N2CC(=O)NC21/C=C/c1ccco1", "note": "(centres unmarked)", "hERG current change (%, negative = inhibition) at 1uM": 6.37},
      {"smiles": "Cc1c([N+](=O)[O-])cc(C(=O)Nc2ccc3ncccc3c2)cc1[N+](=O)[O-]", "hERG current change (%, negative = inhibition) at 1uM": 19.2},
      {"smiles": "CCc1cc(CN2CCOCC2)c(NC(=O)c2ccccc2)s1", "hERG current change (%, negative = inhibition) at 1uM": 7.45},
      {"smiles": "CCc1cc(=O)oc2c(C)c(OC(C)C(=O)NCCCn3ccnc3)ccc12", "note": "(centres unmarked)", "hERG current change (%, negative = inhibition) at 1uM": 12.5},
      {"smiles": "Cn1c(N)c(N=O)c(=O)n(C)c1=O", "hERG current change (%, negative = inhibition) at 1uM": 12.1},
      {"smiles": "COCCN(C(=O)COC(=O)CC(C)c1ccccc1)c1c(N)n(Cc2ccccc2)c(=O)[nH]c1=O", "note": "(centres unmarked)", "hERG current change (%, negative = inhibition) at 1uM": 3.91},
      {"smiles": "COc1ccc2nc(C)c3c(c2c1)OC(C)C3", "note": "(centres unmarked)", "hERG current change (%, negative = inhibition) at 1uM": -8.52},
      {"smiles": "O=C(c1ccc(N2CCN(C3CC(=O)N(Cc4cccs4)C3=O)CC2)cc1)c1cccnc1", "note": "(centres unmarked)", "hERG current change (%, negative = inhibition) at 1uM": -15.5},
      {"smiles": "COc1ccc(OC)c(NC(=O)CC2SC(=N)N(c3ccccc3)C2=O)c1", "note": "(centres unmarked)", "hERG current change (%, negative = inhibition) at 1uM": 0.203},
      {"smiles": "COc1ccc(S(=O)(=O)N2CCC(C)CC2)cc1Br", "hERG current change (%, negative = inhibition) at 1uM": 3.09},
      {"smiles": "Fc1ccc(-c2nnc(CSc3nnc(-c4ccc5c(c4)OCO5)o3)o2)cc1", "hERG current change (%, negative = inhibition) at 1uM": 3.29},
      {"smiles": "C#CCOCCOCCOCCNc1nc(N2CCN(C(=O)CCCCCCCCCCNC(=O)Cn3cc(C[C@@H](C)O)nn3)CC2)nc(N2CCN(C(=O)CCCCCCCCCCNC(=O)[C@@H]([C@H](C)O)n3cc(C)nn3)CC2)n1", "hERG current change (%, negative = inhibition) at 1uM": 11.4},
      {"smiles": "COc1ccc(/C(O)=C2/C(=O)C(=O)N(CCN(C)C)C2c2ccc(OC)c(OC)c2)c(C)c1", "note": "(centres unmarked)", "hERG current change (%, negative = inhibition) at 1uM": 8.29},
      {"smiles": "O=C(CNC1CCCC1)Nc1ccc(S(=O)(=O)N2CCCCC2)cc1", "hERG current change (%, negative = inhibition) at 1uM": 11.8},
      {"smiles": "O=C(CN1CCC(N2CCCCC2)CC1)N1CCOCC1.O=C(O)C(=O)O", "hERG current change (%, negative = inhibition) at 1uM": 9.13},
      {"smiles": "CCOc1cc(S(=O)(=O)NC2CCCCC2)ccc1F", "hERG current change (%, negative = inhibition) at 1uM": 4.43},
      {"smiles": "Clc1ccc(-c2nc3n(n2)Cc2ccccc2-3)cc1", "hERG current change (%, negative = inhibition) at 1uM": 1.24},
      {"smiles": "Cc1nc2cc([N+](=O)[O-])ccc2c(=O)n1-c1cccc(Br)c1", "hERG current change (%, negative = inhibition) at 1uM": -6.43},
      {"smiles": "CCOC(=O)C1=NN(C(C)=O)C2(CC(=O)N(c3ccc(C)c(C)c3)C2=O)C1", "note": "(centres unmarked)", "hERG current change (%, negative = inhibition) at 1uM": 0.383},
      {"smiles": "Cc1cc2c(=O)[nH]cnc2s1", "hERG current change (%, negative = inhibition) at 1uM": 17},
      {"smiles": "CC(C)(C)OCC(O)C[NH+]1CCN(C(=O)c2ccccc2)CC1.O=C([O-])C(=O)[O-]", "note": "(centres unmarked)", "hERG current change (%, negative = inhibition) at 1uM": 11},
      {"smiles": "CC(=O)Nc1ccc(S(=O)(=O)c2ccc(N)cc2)cc1N", "hERG current change (%, negative = inhibition) at 1uM": 7.35},
      {"smiles": "COc1ccc(C(=O)NCc2nnc(SCC(=O)Nc3nc4ccc(C)cc4s3)o2)cc1OC", "hERG current change (%, negative = inhibition) at 1uM": 9.95},
      {"smiles": "N#CC1=C(N)OC2=C(C(=O)CCC2)C1C1C=CCCC1", "note": "(centres unmarked)", "hERG current change (%, negative = inhibition) at 1uM": 7.33},
      {"smiles": "COC(=O)c1cc(OC)c(OC)cc1NC(=O)CCCCCN1C(=O)CCC1=O", "hERG current change (%, negative = inhibition) at 1uM": 16},
      {"smiles": "COc1ccc(CNC(=O)C(CCSC)NC(=O)c2ccco2)cc1", "note": "(centres unmarked)", "hERG current change (%, negative = inhibition) at 1uM": -0.678},
      {"smiles": "CC(Cc1cccs1)NCc1ccccc1", "note": "(centres unmarked)", "hERG current change (%, negative = inhibition) at 1uM": 12.8},
      {"smiles": "Cc1cc(/C=C2/SC(=O)NC2=O)c(C)n1-c1ccc(N2CCOCC2)cc1", "hERG current change (%, negative = inhibition) at 1uM": 10.6},
      {"smiles": "O=C(NC1CCCC1)C1CCN(C(=O)c2cccc(Cl)c2)CC1", "hERG current change (%, negative = inhibition) at 1uM": 29},
      {"smiles": "CON/C=C(\\C=Nc1ccc(Cl)cc1)c1ncc(C(F)(F)F)cc1Cl", "hERG current change (%, negative = inhibition) at 1uM": 3.4},
      {"smiles": "CCOc1cc(C(=S)N2CCOCC2)ccc1OS(=O)(=O)c1ccc(Br)cc1", "hERG current change (%, negative = inhibition) at 1uM": 7.63},
      {"smiles": "CC(OC(=O)CCCN=C1NS(=O)(=O)c2ccccc21)C(=O)Nc1ccccc1F", "note": "(centres unmarked)", "hERG current change (%, negative = inhibition) at 1uM": -4.77},
      {"smiles": "Cn1nccc1C(=O)NC(=S)Nc1cc(Cl)cc(Cl)c1", "hERG current change (%, negative = inhibition) at 1uM": 11},
      {"smiles": "O=C(Nc1ccc(F)cc1F)NC1CCCc2ccccc21", "note": "(centres unmarked)", "hERG current change (%, negative = inhibition) at 1uM": 2},
      {"smiles": "Cc1ccc2nc(NC(=O)C(NS(=O)(=O)c3cccc4nsnc34)C(C)C)sc2c1", "note": "(centres unmarked)", "hERG current change (%, negative = inhibition) at 1uM": 3.14},
      {"smiles": "Cc1c(Cc2ccccc2)c(=O)oc2c(C)c(OC(C)C(=O)N[C@@H](Cc3ccccc3)C(=O)O)ccc12", "note": "(some centres unmarked)", "hERG current change (%, negative = inhibition) at 1uM": 8.39},
      {"smiles": "N#Cc1c(N2CCOCC2)nsc1-c1ccccc1", "hERG current change (%, negative = inhibition) at 1uM": 14},
      {"smiles": "CC(C)(C)c1ccc(/C=N/Nc2nncn2N)cc1", "hERG current change (%, negative = inhibition) at 1uM": -7.77},
      {"smiles": "C[C@H](O)CC1=C[C@H](O)[C@@H](C)OC1=O", "hERG current change (%, negative = inhibition) at 1uM": -14.7},
      {"smiles": "COc1cccc(NC(=O)C(c2ccccc2)N2CCN(CC(=O)N3CCOCC3)CC2)c1", "note": "(centres unmarked)", "hERG current change (%, negative = inhibition) at 1uM": -14.6},
      {"smiles": "COc1cc(OC)cc(C(=O)Nc2ccc(C(=O)NCC3CCCO3)cc2)c1", "note": "(centres unmarked)", "hERG current change (%, negative = inhibition) at 1uM": 9.71}
    ]}
  ]
}
